Results taken from US20130130922A1, “ANALYSIS OF METHYLATION SITES” (Centre for Addiction and Mental Health, priority 2011, published 2013).

Tested on: DNA
Assay: Transalkylation activity of engineered MTases with synthetic AdoMet analogs
Conditions: double-alanine mutant vs original His6 tagged variant
Source text: The other two MTases, M.HpaII and M.SssI, were subcloned as His6-tagged variants, and the purification procedures for obtaining AdoMet-free enzymes were established. In the second step, appropriate changes were produced, by site-directed mutagenesis, in the HpaII (Q104A/N335A) and SssI (Q142A/N370A) MTases, and the double-alanine mutants were obtained in a similar fashion.
The analysis was done as described above.

SssI (Q142A/N370A): His6-tagged M.SssI C5 DNA methyltransferase (CG target site) double-alanine mutant Q142A/N370A
increase in transalkylation activity with synthetic AdoMet analogs as compared to the original His6 tagged variant: ~2 orders of magnitude
